Test results reported in patent publication US20240158504A1 (BJ BIOSCIENCE, published 2024).
Substitutions are numbered along the chain they refer to.

B1: BJ-005-P2 (other)
heavy: EVQLVQSGAEVKKPGSSVKVSCAASGFNITDTYMHWVRQAPGQGLEWIGWIDPANGHTKSDPKFQGKATITADTSTNTAYMELSSLRSEDTAVYYCARRGDGYRYFYAMGYWGQGTLVTVSSASTKGPSVFPLAPSSKSTSGGTAALGCLVKDYFPEPVTVSWNSGALTSGVHTFPAVLQSSGLYSLSSVVTVPSSSLGTQTYICNVNHKPSNTKVDKRV[human IgG1 Fc and a few adjoining residues not listed]GGGSGGGGSGGGGSGGGGSTIPPHVQKSVNNDMIVTDNNGAVKFPQLCKFCDVRFSTCDNQKSCMSNCSITSICEKPQEVCVAVWRKNDENITLETVCHDPKLPYHDFILEDAASPKCIMKEKKKPGETFFMCSCSSDECNDNIIFSEEYNTSNPD
light: DIQMTQSPSTLSASVGDRVTITCRASQDISNYLNWYQQKPDQSPKLLIYYTSRLRSGVPARFSGSGSGTEYTLTISSLQPDDFATYYCQQGNTLPPTFGQGTKVEVKRTVAAPSVFIFPPSDEQLKSGTASVVCLLNNFYPREAKVQWKVDNALQSGNSQESVTEQDSKDSTYSLSSTLTLSKADYEKHKVYACEVTHQGLSSPVTKSFNRGEC
B2: BJ-005-P3 (other)
heavy: EVQLVQSGAEVKKPGSSVKVSCAASGFNIKDNYIHWVRQAPGQGLEWIGWIDPANTNTKYDPKFQGKATITADTSTNTAYMELSSLRSEDTAVYYCARRGDGYRYFYAMAYWGQGTLVTVSSASTKGPSVFPLAPSSKSTSGGTAALGCLVKDYFPEPVTVSWNSGALTSGVHTFPAVLQSSGLYSLSSVVTVPSSSLGTQTYICNVNHKPSNTKVDKRV[human IgG1 Fc and a few adjoining residues not listed]GGGSGGGGSGGGGSGGGGSTIPPHVQKSVNNDMIVTDNNGAVKFPQLCKFCDVRFSTCDNQKSCMSNCSITSICEKPQEVCVAVWRKNDENITLETVCHDPKLPYHDFILEDAASPKCIMKEKKKPGETFFMCSCSSDECNDNIIFSEEYNTSNPD
light: B1 light with N31D, Y50H, R55H
B3: BJ-005-P1 (other)
heavy: EVQLVQSGAEVKKPGSSVKVSCAASGFNITDTYMHWVRQAPGQGLEWIGWIDPANGHTKSDPKFQGKATITADTSTNTAYMELSSLRSEDTAVYYCARRGDGYRYFYAMGYWGQGTLVTVSSASTKGPSVFPLAPSSKSTSGGTAALGCLVKDYFPEPVTVSWNSGALTSGVHTFPAVLQSSGLYSLSSVVTVPSSSLGTQTYICNVNHKPSNTKVDKRV[human IgG1 Fc and a few adjoining residues not listed]GGGSGGGGSGGGGSGGGGSTIPPHVQKSVNNDMIVTDNNGAVKFPQLCKFCDVRFSTCDNQKSCMSNCSITSICEKPQEVCVAVWRKNDENITLETVCHDPKLPYHDFILEDAASPKCIMKEKKKPGETFFMCSCSSDECNDNIIFSEEYNTSNPD
light: B1 light with D41G, Q42K, S43A

Target: TGF-β1
Assay: cell-based or functional assay

Point of comparison: B2, “IC50 (nM), SEAP level of HEK-Blue TGF-β cells stimulated with TGF-β1” value 0.0579 nM. Against it:
- B1 — within 1.5-fold, 0.0388 nM
- B3 — 2.3-fold lower, 0.0256 nM
